Data: the supplement of paper PMC8728848
The list shows a part of the results.

Tests used:
Assay in all cases: glycan array binding signal (z-score within array); higher = stronger binding
Conditions in all cases: glycan notation: IUPAC condensed, linker removed
Neu5Ac(a2-8)Neu5Ac = biological target: Neu5Ac(a2-8)Neu5Ac
Summary of the method: (§1)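 Arrays were curated from the Consortium for Functional Glycomics database, 3228 in total, and kept only where the protein sequence was available. Binding is expressed as a within-array Z-score. This score was averaged across arrays of the same protein sequence at different concentrations or buffers and across linkers, and negative values can be read as non-binding.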

[1] = biological target: Neu5Ac(a2-8)Neu5Ac(a2-3)Gal(b1-3)GalNAc(b1-4)[Neu5Ac(a2-3)]Gal(b1-4)Glc
Summary of the method: as §1

[2] = biological target: Neu5Ac(a2-8)Neu5Ac(a2-3)Gal(b1-3)GalNAc(b1-4)[Neu5Ac(a2-8)Neu5Ac(a2-3)]Gal(b1-4)Glc
Summary of the method: as §1

[3] = biological target: Neu5Ac(a2-8)Neu5Ac(a2-3)Gal(b1-4)Glc
Summary of the method: as §1

[4] = biological target: Neu5Ac(a2-8)Neu5Ac(a2-3)Gal(b1-4)GlcNAc
Summary of the method: as §1

[5] = biological target: Neu5Ac(a2-8)Neu5Ac(a2-3)[Gal(b1-3)GalNAc(b1-4)]Gal(b1-4)Glc
Summary of the method: as §1

[6] = biological target: Neu5Ac(a2-8)Neu5Ac(a2-3)[GalNAc(b1-4)]Gal(b1-4)Glc
Summary of the method: as §1

[7] = biological target: Neu5Ac(a2-8)Neu5Ac(a2-8)Neu5Ac
Summary of the method: as §1

[8] = biological target: Neu5Ac(a2-8)Neu5Ac(a2-8)Neu5Ac(a2-3)Gal(b1-4)Glc
Summary of the method: as §1

[9] = biological target: Neu5Ac(a2-8)Neu5Ac(a2-8)Neu5Ac(a2-3)[Gal(b1-3)GalNAc(b1-4)]Gal(b1-4)Glc
Summary of the method: as §1

[10] = biological target: Neu5Ac(a2-8)Neu5Ac(a2-8)Neu5Ac(a2-3)[GalNAc(b1-4)]Gal(b1-4)Glc
Summary of the method: as §1

[11] = biological target: Neu5Ac(a2-8)Neu5Ac(a2-8)Neu5Ac(a2-8)Neu5Ac(a2-3)[GalNAc(b1-4)]Gal(b1-4)Glc
Summary of the method: as §1

[12] = biological target: Neu5Ac(a2-8)Neu5Gc(a2-3)Gal(b1-4)GlcNAc
Summary of the method: as §1

[13] = biological target: Neu5Ac(b2-6)Gal(b1-4)GlcNAc
Summary of the method: as §1

Neu5Ac(b2-6)GalNAc = biological target: Neu5Ac(b2-6)GalNAc
Summary of the method: as §1

[14] = biological target: Neu5Ac9Ac(a2-3)Gal(b1-3)GlcNAc
Summary of the method: as §1

[15] = biological target: Neu5Ac9Ac(a2-3)Gal(b1-4)GlcNAc
Summary of the method: as §1

[16] = biological target: Neu5Ac9Ac(a2-6)Gal(b1-4)GlcNAc
Summary of the method: as §1

[17] = biological target: Neu5Gc(a2-3)Gal(b1-3)GlcNAc
Summary of the method: as §1

[18] = biological target: Neu5Gc(a2-3)Gal(b1-3)[Fuc(a1-4)]GlcNAc
Summary of the method: as §1

Neu5Gc(a2-3)Gal(b1-4)Glc = biological target: Neu5Gc(a2-3)Gal(b1-4)Glc
Summary of the method: as §1

[19] = biological target: Neu5Gc(a2-3)Gal(b1-4)GlcNAc
Summary of the method: as §1

[20] = biological target: Neu5Gc(a2-3)Gal(b1-4)GlcNAc(b1-3)Gal(b1-4)GlcNAc(b1-2)Man(a1-3)[Neu5Gc(a2-3)Gal(b1-4)GlcNAc(b1-3)Gal(b1-4)GlcNAc(b1-2)Man(a1-6)]Man(b1-4)GlcNAc(b1-4)GlcNAc
Summary of the method: as §1

[21] = biological target: Neu5Gc(a2-3)Gal(b1-4)[Fuc(a1-3)]GlcNAc
Summary of the method: as §1

[22] = biological target: Neu5Gc(a2-6)Gal(b1-4)GlcNAc
Summary of the method: as §1

Neu5Gc(a2-6)GalNAc = biological target: Neu5Gc(a2-6)GalNAc
Summary of the method: as §1

[23] = biological target: Neu5Gc(a2-8)Neu5Ac(a2-3)Gal(b1-4)GlcNAc
Summary of the method: as §1

[24] = biological target: Neu5Gc(a2-8)Neu5Gc(a2-3)Gal(b1-4)GlcNAc
Summary of the method: as §1

[25] = biological target: Neu5Gc(a2-8)Neu5Gc(a2-3)Gal(b1-4)GlcNAc(b1-3)Gal(b1-4)GlcNAc
Summary of the method: as §1

[26] = biological target: Neu5Gc(a2-8)Neu5Gc(a2-6)Gal(b1-4)GlcNAc
Summary of the method: as §1

[27] = biological target: Neu5Gc(b2-6)Gal(b1-4)GlcNAc
Summary of the method: as §1

B1: rCnSL-A (Clitocybe nebularis) (protein)
chain: VNPNLPGPNDVFVGFRGTNNIVGAIYEKDGIKDTPLNNGADAEMGPGSYITDGLFTARIFASGSAGNNPGTTATVCKIYASGVQWRGAPKGYIPVAYFGNGPTAEQRRQTYLRTLGLPGTAIRFGNLNTNPGQGPTAPRQMVVPPGPLRSLLKASCFPAADTRLPQTLHYFEKRVDWNIITAADSQTWGH
- glycan array binding signal (z-score) (Neu5Ac(a2-8)Neu5Ac): -0.23
- glycan array binding signal (z-score) [1]: -0.299
- glycan array binding signal (z-score) [2]: -0.192
- glycan array binding signal (z-score) [3]: -0.223
- glycan array binding signal (z-score) [4]: -0.345
- glycan array binding signal (z-score) [5]: -0.234
- glycan array binding signal (z-score) [6]: -0.246
- glycan array binding signal (z-score) [7]: -0.276
- glycan array binding signal (z-score) [8]: -0.228
- glycan array binding signal (z-score) [9]: 0.094
- glycan array binding signal (z-score) [10]: -0.215
- glycan array binding signal (z-score) [11]: -0.231
- glycan array binding signal (z-score) [12]: -0.288
- glycan array binding signal (z-score) [13]: -0.228
- glycan array binding signal (z-score) (Neu5Ac(b2-6)GalNAc): -0.222
- glycan array binding signal (z-score) [14]: -0.199
- glycan array binding signal (z-score) [15]: 0.394
- glycan array binding signal (z-score) [16]: -0.255
- glycan array binding signal (z-score) [17]: -0.273
- glycan array binding signal (z-score) [18]: -0.215
- glycan array binding signal (z-score) (Neu5Gc(a2-3)Gal(b1-4)Glc): -0.52
- glycan array binding signal (z-score) [19]: -0.235
- glycan array binding signal (z-score) [20]: -0.099
- glycan array binding signal (z-score) [21]: -0.271
- glycan array binding signal (z-score) [22]: -0.271
- glycan array binding signal (z-score) (Neu5Gc(a2-6)GalNAc): -0.262
- glycan array binding signal (z-score) [23]: -0.225
- glycan array binding signal (z-score) [24]: -0.254
- glycan array binding signal (z-score) [25]: -0.31
- glycan array binding signal (z-score) [26]: -0.26
- glycan array binding signal (z-score) [27]: -0.297
